# In PubChem BioAssay AID1452 (National Center for Advancing Translational Sciences (NCATS), 2008):
# Out of some 150,000 compounds screened, about 190 (0.13%) were called active. The shares of active, inactive and inconclusive entries below differ from those in the screen. The call rests on the fitted dose curve; in most records, active means well fitted inhibition curve with a large enough effect; inconclusive means small, poorly fitted or top-dose-only effect; inactive means flat fitted curve, though single readings scatter. Potencies of inconclusive entries are doubtful fits and often do not repeat.
# Target: Polyunsaturated fatty acid lipoxygenase ALOX12 (Homo sapiens) (UniProt P18054)
# UniProt P18054, sequence (P18054 whole entry, looked up): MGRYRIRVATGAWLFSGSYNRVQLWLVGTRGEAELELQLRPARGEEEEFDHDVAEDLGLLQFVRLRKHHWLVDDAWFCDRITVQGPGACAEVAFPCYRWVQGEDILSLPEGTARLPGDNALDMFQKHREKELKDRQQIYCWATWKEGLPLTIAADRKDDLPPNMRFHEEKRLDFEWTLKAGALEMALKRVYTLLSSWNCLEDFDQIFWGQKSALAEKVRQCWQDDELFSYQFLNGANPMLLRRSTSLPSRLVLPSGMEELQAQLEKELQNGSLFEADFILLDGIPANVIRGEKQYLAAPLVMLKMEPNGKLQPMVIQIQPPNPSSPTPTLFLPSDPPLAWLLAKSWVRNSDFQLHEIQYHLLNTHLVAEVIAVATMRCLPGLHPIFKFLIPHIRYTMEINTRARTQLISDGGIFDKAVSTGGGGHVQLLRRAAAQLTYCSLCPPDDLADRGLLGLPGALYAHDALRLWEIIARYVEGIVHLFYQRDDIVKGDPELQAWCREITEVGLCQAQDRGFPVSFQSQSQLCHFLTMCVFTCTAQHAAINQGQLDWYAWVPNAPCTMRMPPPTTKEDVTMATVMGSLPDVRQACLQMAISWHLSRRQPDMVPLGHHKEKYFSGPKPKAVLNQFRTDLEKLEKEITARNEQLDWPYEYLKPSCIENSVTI
# Experiment: qHTS Assay for Inhibitors of 12-hLO (12-human lipoxygenase); further: nearly all actives have a fitted effect of over 55% in size
# Conditions: purified 12-hLO, xylenol orange hydroperoxide absorbance; series mostly up to 57.1 µM; activity change, negative = inhibition: at the top concentration
# In short: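 150 nM 12hLO, 25 mM Hepes pH 7.0 + 0.01% Triton X-100; cpd preinc 15 min RT; 40 uM arachidonic acid, 30 min RT; Fe-XO 30 min; A573/A405 ratio as read-out.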
# On the % scale 0 is the no-effect control and ±100 the full control effect; potency means the concentration at half of the fitted maximal effect; tags describe the fitted curve by direction and shape.
Compound,"activity change, negative = inhibition",Potency
CCN(CC)S(=O)(=O)c1cc(NC(=O)COC(=O)CCC(=O)c2ccc(F)cc2)ccc1C,inactive: -1.6%,
CCOC(=O)c1c(-c2ccc(C)o2)csc1NC(=O)COC(=O)c1cccs1,,"inconclusive: 20 µM [inhibitor, single point]"
O=C(NC12CC3CC(CC(C3)C1)C2)N1CCN(S(=O)(=O)c2ccc(Cl)cc2)CC1,,"inconclusive: 11.2 µM [inhibitor, partial curve]"
O=C(c1ccc(N2CCCCC2)c([N+](=O)[O-])c1)N1CCOCC1,inactive: 4.35%,
Cc1ccc(NC(=S)N2CCC(c3nc4ccccc4s3)CC2)cc1,,"inconclusive: 39.8 µM [inhibitor, single point]"
Cc1cc(C)c2c(-n3cccc3)c(C(=O)NNS(=O)(=O)c3ccc(Br)cc3)sc2n1,,"inconclusive: 44.7 µM [inhibitor, partial curve, poor fit]"
O=c1cc2c(nn1Cc1ccc(Cl)cc1)-c1ccccc1CC2,,"inconclusive: 15.8 µM [inhibitor, partial curve, poor fit]"
O=C(NC(Nc1nc2ccc([N+](=O)[O-])cc2s1)(C(F)(F)F)C(F)(F)F)c1ccccc1Cl,,"inconclusive: 25.1 µM [inhibitor, single point]"
COc1ccc(NCc2c(O)ccc3ccccc23)cc1,,"inconclusive: 3.16 µM [inhibitor, partial curve]"
O=[N+]([O-])c1ccc(N/N=C/c2ccc[nH]2)cc1,,active: 6.31 µM
Cc1ccc(C(=O)NC(=S)Nc2cccc3c(C)cc(C)nc23)cc1,,"inconclusive: 31.6 µM [inhibitor, single point]"
O=c1oc2ccccc2c(O)c1/C=N/c1ncccn1,,"inconclusive: 15.8 µM [inhibitor, partial curve, poor fit]"
O=C(O)c1c(Cl)c(Cl)c(Cl)c(Cl)c1C(=O)N1CCCC1,inactive: 3.99%,
CC1(C)CC(Nc2ccc(Nc3ccccc3)cc2)CC(C)(C)N1,,"inconclusive: 8.91 µM [inhibitor, single point]"
CCc1ccc2[nH]c(=O)c(CN(Cc3ccccc3)Cc3nnnn3Cc3ccco3)cc2c1,,"inconclusive: 25.1 µM [inhibitor, single point]"
c1ccc([C@@H]2CN3CCSC3=N2)cc1,,"inconclusive: 4.47 µM [inhibitor, single point]"
CCCCn1c(Cc2ccccc2)n[nH]c1=S,,"inconclusive: 25.1 µM [inhibitor, single point]"
Cc1cccc(NC(=S)N(CCCN2CCOCC2)Cc2cn(C)c3ccccc23)c1,inactive: -1.85%,
Fc1ccccc1C(c1nnnn1Cc1ccc2c(c1)OCO2)N1CCN(Cc2ccccc2)CC1 (centres undefined),,"inconclusive: 39.8 µM [inhibitor, single point]"
CCc1nc2oc3ccccc3c(=O)c2c(=O)n1Cc1ccc(OC)cc1,,"inconclusive: 17.8 µM [inhibitor, partial curve]"
O=C(/C=C/c1ccco1)NC(=S)Nc1ccccc1N1CCOCC1,,"inconclusive: 28.2 µM [inhibitor, single point]"
O=C(c1ccco1)N1CCC2(CC1)CN(c1ccccc1)C2,inactive: -4.66%,
COc1cc(C)c(C)cc1S(=O)(=O)N1CCN(Cc2ccc3c(c2)OCO3)CC1,inactive: -14.8%,

Compound,"activity change, negative = inhibition",Potency
O=c1[nH]c(=O)n(Cc2ccccc2)c2nc(-c3ccc(Oc4ccc(F)cc4)c([N+](=O)[O-])c3)n(CCO)c12,inactive: 0.137%,
Cc1ccc(S(=O)(=O)N(C)C)cc1NC(=O)CSc1ncc(C(F)(F)F)cc1Cl,inactive: -2.4%,
Cc1ccc(CNC(=S)Nc2ccc(C)c([N+](=O)[O-])c2)cc1,,"inconclusive: 0.794 µM [inhibitor, full curve, poor fit]"
COc1ccc(NC(=S)NCCSc2ccc(Cl)cc2)c(OC)c1,,"inconclusive: 3.16 µM [inhibitor, full curve]"
O=C(NC(=S)Nc1ccc(S(=O)(=O)N2CCCC2)cc1)c1cccs1,,"inconclusive: 28.2 µM [inhibitor, partial curve]"
O=C(C1=C(O)/C(=C/c2ccc(O)cc2)CCC1)C(F)(F)F,,"inconclusive: 22.4 µM [inhibitor, partial curve]"
C=C(C)COc1ccc(-c2n[nH]c(C)c2Oc2ccccc2OC)c(O)c1,,"inconclusive: 10 µM [inhibitor, partial curve]"
O=C(COCc1nc2ccccc2c(=O)[nH]1)NCC1CCCCC1,inactive: -0.899%,
CSc1ccc(C2C(C#N)=C(N)N(c3ccccc3)C3=C2C(=O)CCC3)cc1 (centres undefined),,"inconclusive: 28.2 µM [inhibitor, single point]"
CCOc1cc(NC(=S)NCC2CCCO2)c(OCC)cc1NC(=O)c1ccccc1 (centres undefined),,"inconclusive: 28.2 µM [inhibitor, single point]"
Cc1ccc(C(=O)Nc2nnc(-c3ccco3)o2)cc1,,"inconclusive: 5.01 µM [inhibitor, full curve]"
Oc1ccc2ccccc2c1CNc1cnc2ccccc2c1,,"inconclusive: 3.55 µM [inhibitor, full curve]"
CC(C)(C)c1ccc(NC(=S)NCc2cccs2)cc1,,"inconclusive: 25.1 µM [inhibitor, single point]"
CCOC(=O)C1=C(c2ccccc2)NC(=S)NC1c1ccc(Cl)c([N+](=O)[O-])c1 (centres undefined),,"inconclusive: 31.6 µM [inhibitor, single point]"
O=C(NCCN1C(=O)C2C3C=CC(C3)C2C1=O)Nc1cccnc1 (centres undefined),inactive: 0.231%,
CSc1ccc(C2C(C#N)=C(N)Oc3cc4c(cc32)OCO4)cc1 (centres undefined),,"inconclusive: 14.1 µM [inhibitor, partial curve]"
Cc1cccc(-n2c(C)cc(/C=N/NC(N)=S)c2C)c1,,"inconclusive: 39.8 µM [inhibitor, single point]"
C[C@@H](Cc1ccccc1)Nc1ncnc2c1ncn2[C@@H]1O[C@@H](CO)[C@H](O)[C@@H]1O,,"inconclusive: 6.31 µM [inhibitor, single point]"
COc1ccc(OC)c(C2CC(=O)N3CN(c4cccc(Cl)c4)CSC3=C2C#N)c1 (centres undefined),,"inconclusive: 28.2 µM [inhibitor, single point]"
CN(C)CCc1c[nH]c2ccc(CC3COC(=O)N3)cc12 (centres undefined),inactive: 2.58%,
O=C(O)c1ccc(-n2nc(C(F)(F)F)c3c2-c2ccoc2CC3)cc1,inactive: -9.94%,
COc1ccc(NC(=O)CSc2nncn2C)cc1OC,inactive: -1.07%,
O=C1c2cccc3cccc(c23)C(=O)N1CC1CCN(CC(O)COc2ccc3ccccc3c2)CC1 (centres undefined),,"inconclusive: 3.98 µM [inhibitor, partial curve]"

Compound,"activity change, negative = inhibition",Potency
Cc1cccc(-n2c(-c3csc4ccccc34)n[nH]c2=S)c1,inactive: -7.39%,
NC(=O)C1C(c2ccccc2)=C1c1ccccc1,inactive: -1.4%,
O=C(Cc1sc(Nc2ccccc2)nc1-c1ccccc1)NCc1ccccc1,,"inconclusive: 5.01 µM [inhibitor, full curve, poor fit]"
O=C(NC(=S)Nc1ccc(Oc2ccc(Cl)cc2)cc1)c1ccccc1,,active: 12.6 µM
Clc1ccc(C2=CSC3=Nc4cccc5cccc(c45)N23)cc1,,"inconclusive: 8.91 µM [inhibitor, single point]"
Cc1nn(CCc2nc(-c3ccco3)cs2)c2[nH]c(=O)cc(C(F)(F)F)c12,,"inconclusive: 12.6 µM [inhibitor, partial curve]"
CC[C@@H](CS(=O)(=O)O)[N+](=O)[O-],inactive: 3.89% [at 11.4 µM],
Cc1ccc(NS(=O)(=O)c2cc(C(=O)NCCSC3CCCCC3)ccc2C)cc1,,"inconclusive: 15.8 µM [inhibitor, partial curve]"
Cc1ccc(C(=O)/C=C/c2ccco2)c(O)c1,,"inconclusive: 17.8 µM [inhibitor, single point]"
CC(C)NC(=O)c1ccccc1NC(=O)CS(=O)(=O)Cc1ccccc1,inactive: -5.04%,
CCN(CCO)C1CC(=O)N(c2ccccc2C)C1=O (centres undefined),inactive: 1.64%,
Cc1cc(NC(=O)CCN2C(=O)C3C4CCC(C4)C3C2=O)cc(C)c1Br (centres undefined),inactive: -5.17%,
COc1ccc2oc(/C=C/N(C)C)c(C(=O)c3ccc(Cl)cc3)c2c1,,"inconclusive: 3.98 µM [inhibitor, partial curve]"
CC1(C)Cc2c(c(N3CCOCC3)nc3sc(-c4ccc(C(=O)O)o4)c(N)c23)CO1,,"inconclusive: 15.8 µM [inhibitor, partial curve]"
CCc1ccc(-c2nc(NC(=O)c3ccc(OCC(=O)Nc4ccc(F)cc4)c(OC)c3)sc2C)cc1,inactive: -1.3%,
CCOc1cc(-c2cc(-c3ccc(C)cc3)nc(N)c2C#N)ccc1O,,"inconclusive: 10 µM [inhibitor, partial curve]"
Cc1cc2cc(C(c3nnnn3Cc3ccco3)N3CCc4ccccc4C3)c(=O)[nH]c2cc1C (centres undefined),,"inconclusive: 10 µM [inhibitor, partial curve]"
COc1cccc(Oc2ccc(N/C=C/C(=O)C(C)(C)C)cc2)c1,inactive: 2.33%,
CCOC(=O)c1ccc(NC(=S)NCCc2ccccc2)cc1,,"inconclusive: 28.2 µM [inhibitor, partial curve]"
Nc1ccc(N2CCN(c3ccc(Cl)c(Cl)c3)CC2)cc1,,"inconclusive: 20 µM [inhibitor, single point]"
Cc1ccc(/C=C/C(=O)c2ccccc(=O)c2O)c(C)c1,,"inconclusive: 6.31 µM [inhibitor, partial curve]"
CCCSC1=N/C(=C\C=C\c2ccco2)C(=O)S1,,"inconclusive: 8.91 µM [inhibitor, partial curve]"
CCOC(=O)C1=C(O)C(=O)N(Cc2ccccc2)C1,,"inconclusive: 28.2 µM [inhibitor, partial curve]"
